Laboratory results from the supplement of paper PMC11417369.
This is one part of the list.

What follows are sequences tested on PfHDP1 homeodomain (GST-tagged) (assay: gcPBM binding intensity (ln(normalized median fluorescence intensity)); higher = stronger DNA binding).
In short: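 Binding intensity is the highest Masliner-normalised natural-log median intensity over replicate spots in either probe orientation. To obtain it, GST-tagged P. falciparum DNA-binding domains made in E. coli were incubated for 1 h on an Agilent 4 × 180k array of primer-extended double-stranded 36-bp intergenic genomic probes plus negative controls. Detection used Alexa488 anti-GST antibody with scanning at 488 nm.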

Compared with “ATATATGGGGCGCAGGAAAAGAGTTTTGGAAATAAA [CACACA_negctrl_site1265]”, “AAGTTATATAAAGGAACACACATTTGATTTTATTTT [CACACA_site6814]” is lower in “gcPBM binding intensity (ln)” value: 6.53 for the first, 6.31 for the second.

Compared with “TATACAACGTTAAGCACACACAAAAAAAATTTAATA [CACACA_site3086]”, “TAACATTATATATATTGTACATAGTAAATATTATAT [XGTACX_site5421]” is lower in “gcPBM binding intensity (ln)” value: 6.67 for the first, 6.15 for the second.

Compared with “ATTTAAATTATAAAATGTACATTTAACAAATTTTAT [XGTACX_site770]”, “TGTAATCTGGAGAAAAGTACACAGTATCTGGTAGCT [XGTACX_site2039]” is lower in “gcPBM binding intensity (ln)” value: 6.34 for the first, 5.84 for the second.

Going from “AAAAAAAAAAAGAAGGAAACATTTGACCAAAAATAT [GTGCAC_negctrl_site404]” to “ATTCTATACATATATATACACACGTAGTTTCTATTT [CACACA_site2223]”, the “gcPBM binding intensity (ln)” value rises from 6.48 to 6.72.

Going from “GTTAATATACTTAATACACACACGAATATATATAAA [CACACA_site1181]” to “AAAGTAAAAAAAAAAACATGCACATATTTACTTTAT [TGCATGCA_site849]”, the “gcPBM binding intensity (ln)” value rises from 6.95 to 7.94.

Going from “TTTTTTTTGGTTTTCATGCACACAATTTATAAATCT [CACACA_site3107]” to “AAGGGAATATACCTTACACACAAAAATGCAGATATA [CACACA_site1451]”, the “gcPBM binding intensity (ln)” value falls from 8.94 to 6.42.

Compared with “CTAATCAAAATAAATTAACACACAATTTTAATATTG [CACACA_site7887]”, “ATATACTTACATATTACACACAATATTTTTAAATGT [CACACA_site3627]” is higher in “gcPBM binding intensity (ln)” value: 6.07 for the first, 6.83 for the second.

Compared with “AAAAAAAACACGCGCACACACACACCCACCCACCGA [CACACA_site2206]”, “AAAAAAAAAAAAAAAACACACACATGCACATCATAT [CACACA_site8083]” is higher in “gcPBM binding intensity (ln)” value: 7.07 for the first, 8.34 for the second.

Going from “ACAAAATAAAACATCTGTACATATTATTATTATAAG [XGTACX_site4802]” to “TATATTTATAACAACACACACAGATCATAAAACTGC [CACACA_site7086]”, the “gcPBM binding intensity (ln)” value rises from 6.42 to 6.84.

Going from “ATTAGTATAATGTAACTTAGTTAATAGTGCTAATAT [CACACA_negctrl_site764]” to TTTTTAATATATTAGGTGCACAATAATACACTTTAT, the “gcPBM binding intensity (ln)” value rises from 7.05 to 10.3.

Going from “TATATATATATTTATACACACACATATATTTATATA [CACACA_site8054]” to “TATACACTTATTGGTGGTACAATATATAAATATATG [XGTACX_site3289]”, the “gcPBM binding intensity (ln)” value falls from 8.22 to 6.12.

Compared with “CAAAAGTAAGCACGCACACACAACATGAAATAAAAT [CACACA_site165]”, “TTTTGATCTGAAGGAACCTAAAAAGGGAAGAGAAAA [CACACA_negctrl_site1656]” is lower in “gcPBM binding intensity (ln)” value: 7.12 for the first, 6.57 for the second.

First: AAAAAAAAATATACATATATATATATATATATATAT [CACACA_negctrl_site1763]
Second: AATAAACATAAATAAAAATTATAAAATATATATATG [CACACA_negctrl_site1709]
The “gcPBM binding intensity (ln)” value of the first is higher: 9.47 for the first, 6.37 for the second.

Going from “ATAATTCCAAGAATTTCATATATCTGAATTTTAGGT [GTGCAC_negctrl_site283]” to “ATATATATATATATTACACACTTTTTCTTTTTTTTT [CACACA_site2780]”, the “gcPBM binding intensity (ln)” value rises from 5.98 to 9.01.

First: TTTACATTTCAGTAGACACACAAAAAATAATACTAA [CACACA_site512]
Second: CAAGTAGATATTATACGTACATATATATATATATAT [XGTACX_site8349]
The “gcPBM binding intensity (ln)” value of the first is lower: 6.52 for the first, 9.31 for the second.

Compared with “ATATATATAAATAATTGTACATAATAATAAAATATA [XGTACX_site4839]”, “ATATTTTGTAACTATACACACATATTTATATTATAA [CACACA_site7433]” is lower in “gcPBM binding intensity (ln)” value: 6.63 for the first, 6.61 for the second.

Going from “ATATAAAATATTACGTGTACACATAAATAAAAATAA [XGTACX_site3746]” to “TAAAAAATATACATTCGTACATATATATTATATATA [XGTACX_site7918]”, the “gcPBM binding intensity (ln)” value falls from 7.58 to 6.31.

Going from “TTTTATACATATTTTACACACTAAAATATACCTATA [CACACA_site6286]” to “GAAAAAAAAGCTTGCACACGTATTTGCTTTATGTAT [CACACA_site4931]”, the “gcPBM binding intensity (ln)” value rises from 6.94 to 8.22.

Compared with “TACATATATATATTATGTACATAAGGTTTGAGTTCA [XGTACX_site2726]”, “TTTTTGGTATTATTGTGTACTTATAAATAATATAAT [XGTACX_site4019]” is lower in “gcPBM binding intensity (ln)” value: 6.73 for the first, 6.47 for the second.

Compared with “TATAAATATTTATGTACACACATATACATGTTGAAT [CACACA_site5684]”, “AAAAAAAAAAAAAAAAGTACAAAAAGAAGAAAAAAA [XGTACX_site6521]” is lower in “gcPBM binding intensity (ln)” value: 6.73 for the first, 6.21 for the second.

Compared with “TTTTTTTTTTTTACGTGTACATAAATGTTAAGTAAT [XGTACX_site3901]”, “AAAATATAGGTATGCACACACATATACTTCTGTGCA [CACACA_site1409]” is higher in “gcPBM binding intensity (ln)” value: 6.59 for the first, 10 for the second.

Going from “TTTTTTTTTTTTTTTTTTTTTTTATGTTCTTAAAAA [GTGCAC_negctrl_site62]” to “TCATACATGTATATGTGTACATATAATGTATATTCC [XGTACX_site6082]”, the “gcPBM binding intensity (ln)” value rises from 6.12 to 6.41.

Compared with “TTATATTCTTTTCTCTTTCTACTTTTTTTTTTTTTT [XGTACX_negctrl_site317]”, “AAGAAAAACTTATATATATATATATATATATATATA [TGCATGCA_negctrl_site466]” is higher in “gcPBM binding intensity (ln)” value: 6.07 for the first, 9.6 for the second.

Going from “ATATGATCATTTTATCATTTTGCTTTTTCTTTTTTT [CACACA_negctrl_site1325]” to “AATTTTGGAACGTGCACACATATGTAATATATATAT [CACACA_site3067]”, the “gcPBM binding intensity (ln)” value rises from 6.44 to 9.89.

First: TTTTTTTAATGATATTGTACATTAATAAAAAATATG [XGTACX_site1719]
Second: TCTTTTTCAAGATGACGTACTTAGATTAATATAAAA [XGTACX_site3931]
The “gcPBM binding intensity (ln)” value of the first is higher: 6.3 for the first, 6.25 for the second.

Compared with “ATTTGATATATAATAATACACACTTACATAATTAAT [CACACA_site290]”, “TAAATACAGAGGAAAATACACACGTATATATATAAA [CACACA_site3410]” is lower in “gcPBM binding intensity (ln)” value: 6.8 for the first, 6.36 for the second.

Compared with “AAAAAAAATTTAATTGCACACAGGAAAATATAATTT [CACACA_site3810]”, “TATAAATATACAAACACACATACAAACATATATATA [CACACA_site1120]” is lower in “gcPBM binding intensity (ln)” value: 9.42 for the first, 6.97 for the second.

First: TTAATACCCAGACACACACACACAAAATAAAATACA [CACACA_site7968]
Second: TAAATATATAATAAATGTACATATTAATATTATGGT [XGTACX_site1498]
The “gcPBM binding intensity (ln)” value of the first is higher: 6.89 for the first, 6.81 for the second.

First: CAATGTTAACATATTACACACATATGTATTTATAAC [CACACA_site7314]
Second: TACACAAACGTTATACGTACACAGGTTTTTCTTTTA [XGTACX_site5427]
The “gcPBM binding intensity (ln)” value of the first is higher: 6.94 for the first, 6.33 for the second.

First: ATATTGAAATGTTAATAGAAATATATGGTTAAATTG [XGTACX_negctrl_site212]
Second: ATAATAAGAAAAAAAAAAAAAAAAAAAAAAAAAAAA [TGCATGCA_negctrl_site377]
The “gcPBM binding intensity (ln)” value of the first is higher: 6.25 for the first, 6.2 for the second.

Going from “ATGTATATAAATAGGTGTACATATAAGGTGTTAAGC [XGTACX_site5465]” to “ACATTATAATATTATTGTACTATATATATAATATAT [XGTACX_site2291]”, the “gcPBM binding intensity (ln)” value falls from 7.8 to 6.64.

Compared with “ATATAATAACATAACACACACATGTATTTATAGGTG [CACACA_site359]”, GATAATCAGAATGGGGTGCAAAGAAAAAAAAAAAAA is higher in “gcPBM binding intensity (ln)” value: 6.57 for the first, 7.46 for the second.

Compared with “AAAAAAAAAAAAAAAACACACATATATATATAATAT [CACACA_site1159]”, “TTATATTTATATTTATGTACATATTTTGTGTGAAAA [XGTACX_site2367]” is higher in “gcPBM binding intensity (ln)” value: 6.52 for the first, 6.69 for the second.

Compared with “TCTATTTATATGTATTGTACAATATAGATGTGTATT [XGTACX_site5646]”, “CCTAAATAATATCTATCACACACGCATATATACATA [CACACA_site8838]” is lower in “gcPBM binding intensity (ln)” value: 7.2 for the first, 6.44 for the second.

Compared with “TTCTATATATAATATTGTACTTAATTATTTTATTTT [XGTACX_site2701]”, “ATATATATGCATTCAAGTACAAAAATATATGTTAAA [XGTACX_site910]” is higher in “gcPBM binding intensity (ln)” value: 6.36 for the first, 6.7 for the second.

Compared with “TAGCTGTTCAAAAAATGTACATATATAATATATATA [XGTACX_site5842]”, “AGTGTATATAGAAACATACACACATATTAATTTTAC [CACACA_site3127]” is lower in “gcPBM binding intensity (ln)” value: 6.95 for the first, 6.33 for the second.

Going from “AAATTAAAAATAATTACACACATAGAAAAATTATAT [CACACA_site2275]” to “GTAATACACAGACACACACACATACACATATTTATA [CACACA_site7313]”, the “gcPBM binding intensity (ln)” value rises from 6.48 to 7.54.

Going from “TATACAGACAGACACACACACATATATATATATATA [CACACA_site1734]” to “TATATATAAGAAAAAAGTACAGATATATATATATTC [XGTACX_site4788]”, the “gcPBM binding intensity (ln)” value falls from 9.27 to 6.65.

Compared with “TGTTATATTATAACTACACACGTATTATGTTATATC [CACACA_site839]”, “AAATTTTCACTTCAAAAACACACGTATTTTTTTCCT [CACACA_site3813]” is higher in “gcPBM binding intensity (ln)” value: 6.5 for the first, 6.87 for the second.

Going from “TTTTAAGAAAAAAAATGTACACATGAAAATAGTGAA [XGTACX_site5898]” to “TTTTTTATCTAATATTTTATAATTTTCATAAATTTG [GTGCAC_negctrl_site534]”, the “gcPBM binding intensity (ln)” value falls from 6.51 to 6.21.

Going from “AAAAAAAAAAAAAAAAGTACATGCCATATATTTTCA [XGTACX_site4580]” to “GCTAGTTCATAAAATTGTACAAAAAAAAAAAAAAAA [XGTACX_site2223]”, the “gcPBM binding intensity (ln)” value falls from 6.51 to 6.23.

First: AATAGAAACATTTTACATGTATATATAATTTTTTTT [XGTACX_negctrl_site190]
Second: AAATAATCTATACACAACGTATAAGAATAATATATG [TGCATGCA_negctrl_site422]
The “gcPBM binding intensity (ln)” value of the first is lower: 5.95 for the first, 6.27 for the second.

Going from “TAAATAATGTTAAACACACATACCGATATATAATTA [CACACA_site2711]” to “TGTACAATATAAGGAGCACACAAAAATGGATAAATA [CACACA_site8216]”, the “gcPBM binding intensity (ln)” value rises from 6.44 to 7.41.

First: ACCTCTCATATGTTATAAACAAAATGAAAATTTCAT [XGTACX_negctrl_site303]
Second: ATTTTATTTTATTAAGTGCAAAAAAAAAAAAAGAAA
The “gcPBM binding intensity (ln)” value of the first is lower: 7.05 for the first, 9.66 for the second.
